# The other results are listed elsewhere or left out. At the low end of the ranking, values are background and their order means little.
# Test system: T1, GST-NbGlk1(82-244)
# T1 sequence: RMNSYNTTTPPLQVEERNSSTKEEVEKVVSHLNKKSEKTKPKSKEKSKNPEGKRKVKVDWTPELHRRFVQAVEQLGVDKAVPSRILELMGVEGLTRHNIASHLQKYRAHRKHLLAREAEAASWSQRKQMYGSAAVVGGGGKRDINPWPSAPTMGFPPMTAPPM
# Test: protein-binding microarray;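 also: rank-based score ranging −0.5 to +0.5 with E above 0.45 taken as significant binding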
# Settings: NbGlk1 is a Golden2-like transcription factor of Nicotiana benthamiana; high values mean tight binding; most listed sequences are background and not binding sites; double strand, one strand shown
row,Sequence,binding signal [E-score]
1,AGCCCCGC,-0.211
2,AGTGACAT,-0.0431
3,AAGTAGCT,-0.204
4,CACGCCCC,-0.34
5,CAGAGTGG,-0.127
6,CACAATAG,0.102
7,ACATCTCA,-0.0129
8,CAACAGAA,0.0376
9,ACGGAACT,-0.0812
10,ACCCGACT,-0.167
11,ACAACAAC,-0.0759
12,AGAGTAAG,0.0707
13,ACGTCACA,-0.00686
14,ACTGTATA,0.0879
15,AACATACA,0.168
16,AGCGGAAG,-0.147
17,AATACAGA,0.148
18,ATATCTAC,0.392
19,AGAGCACG,-0.199
20,AGCAACAG,-0.125
21,AGACGGTG,-0.157
22,ACTCAAGT,-0.03
23,ACCGATTG,0.114
24,CAGCGCAC,-0.196
25,AAGAGTGT,-0.138

row,Sequence,binding signal [E-score]
1,ACAGCTCA,-0.188
2,ATTGAGTA,0.0266
3,ATTCCTAG,0.202
4,ACTCTTGC,-0.159
5,ACTTTAAG,0.0156
6,AGCTACTC,-0.279
7,AACAGCAC,-0.258
8,AGATCGCA,0.396
9,AATCTGCA,0.414
10,ACTCCCGG,-0.156
11,AGTGGAGC,-0.109
12,ACTCCGCG,-0.00392
13,ATTTCTTG,0.258
14,ATATCCAC,0.393
15,AGATATTG,0.375
16,AGTGAGAA,-0.0221
17,AAATCGAC,0.341
18,ACAGCGCG,0.00111
19,AAAAACGC,0.0283
20,AAAATAGG,0.00995
21,AGCCTAAG,-0.042
22,AAACGGGC,-0.0361
23,ATTGTTTG,0.0616
24,ATTGTCTG,0.13
25,AGGCTCGA,-0.199

row,Sequence,binding signal [E-score]
1,AAAAATTG,0.0342
2,ACGATCTG,0.298
3,ACATAGGG,-0.026
4,AATTACCC,0.108
5,CACTGCAG,-0.108
6,AGGGACTA,-0.169
7,AAGGGACA,-0.169
8,AAAATGCA,0.105
9,CAGAAGGG,-0.212
10,AAGGTCAC,-0.269
11,CAGAGACG,-0.174
12,ACGCGAGA,0.0186
13,ATTGCAAG,0.143
14,ATGAGGAC,-0.123
15,AATGGACC,-0.272
16,ACTCATCT,-0.122
17,AAAGCCAA,-0.167
18,AAATCTTA,0.44
19,AAAGTCGC,0.0306
20,ATGACAAA,0.15
21,AAACTGGC,-0.161
22,ATTGTCAA,0.162
23,CACTGGGC,-0.24
24,AAGTAGGT,-0.114
25,AGCCCACC,-0.243

row,Sequence,binding signal [E-score]
1,ACCATTGG,-0.183
2,AGAACAAG,-0.0832
3,ACCGAGCC,-0.364
4,AGCTTCAG,-0.218
5,ATCGGGCG,0.0618
6,AGACAATC,0.319
7,AGCTATCC,0.00396
8,ACGCCGAT,0.0867
9,AAGGATCT,0.335
10,ACGGGCAG,-0.18
11,AGTCCTGC,-0.325
12,AATCGGAC,0.194
13,AGTTGGTC,-0.161
14,ACTGTGAG,-0.223
15,ACGGTTAT,0.00187
16,ACGGCCCA,-0.315
17,ACGGGTAA,-0.156
18,AGAGCCCA,-0.25
19,AACAGGGG,-0.165
20,ATGCCTCC,-0.317
21,AATGAACA,0.0275
22,ACGCGCAA,0.149
23,ATGAGGGC,-0.18
24,AAATTTCG,0.332
25,AACTATAC,-0.0928

row,Sequence,binding signal [E-score]
1,ACATCATC,-0.093
2,ATTAGTCG,-0.0452
3,ACACAGAT,0.294
4,AGAAAGAT,0.185
5,ATGCCGGA,0.00648
6,ACCCACTC,-0.272
7,AGTACTTG,0.0366
8,AATCACCA,0.26
9,ACAGTACG,-0.113
10,CACCATAC,0.0253
11,AGGTTATC,-0.0657
12,AAGGTTTC,-0.0841
13,ACAGTTCA,-0.09
14,ACGGTAGA,-0.0107
15,AGTCTGGG,-0.15
16,AAAATAGT,0.0268
17,ACCTAGGG,-0.0916
18,ACCCTGAG,-0.232
19,CACGTACG,-0.118
20,AAAGTAGA,-0.0402
21,AACCACCC,-0.115
22,ACCTACTG,-0.127
23,AACAATAT,0.178
24,AGGACCGA,-0.0887
25,AGGTGCAT,-0.229

row,Sequence,binding signal [E-score]
1,AACTGTTG,-0.129
2,ATACAGAT,0.232
3,ACAATACT,0.11
4,ATAATAGC,0.0118
5,ATACTACA,0.146
6,AACCCAGG,-0.109
7,AACGTAGC,-0.14
8,ACAAAGAT,0.204
9,AAAACAGT,0.00413
10,AATCTAAT,0.412
11,AGCCCTAT,-0.252
12,ACACACTA,0.0417
13,ACATACGG,0.048
14,CACGCGCC,-0.113
15,AAGACGGA,-0.135
16,AGCAGCTC,-0.252
17,AATGCTCA,-0.119
18,AGCCTTCG,-0.24
19,ACGAAGAG,-0.0447
20,AGTGCCAG,-0.294
21,AAACCCTG,-0.141
22,AGGTCATG,-0.188
23,AGATGCCT,-0.193
24,AACGTGTC,-0.15
25,ACCCTGCA,-0.123

row,Sequence,binding signal [E-score]
1,ATAAGGAG,-0.00378
2,AATGCAGG,0.087
3,ATAGCAAG,0.00852
4,AGTACGAC,-0.00697
5,ATATTCGC,0.321
6,ACCACCAA,-0.0665
7,ACTTCCAT,-0.0677
8,ATCAACGC,0.098
9,AGTAAGAT,0.231
10,ATGGTACA,-0.0426
11,AGTCGTAA,0.00338
12,AGGTGCGG,-0.133
13,AAAAATGT,-0.0222
14,AAAACAAG,-0.0222
15,ATGTAACC,-0.05
16,AACTCAAA,0.0356
17,AGGTCCAG,-0.273
18,AGCCCGAC,-0.255
19,ACTTAAGA,0.00253
20,AGACATCG,-0.0258
21,AAAAGTAG,-0.0147
22,AAGACCAA,-0.0908
23,AAGTCGGG,-0.168
24,AAATTCTC,0.283
25,AATTTAGC,0.102

row,Sequence,binding signal [E-score]
1,AAAGGCTC,-0.269
2,CAAGTATC,0.147
3,AGACTGTC,-0.116
4,AGTAGAGG,-0.172
5,AGGGAGTC,-0.269
6,CACATAAA,0.0365
7,ATCCGTTG,0.233
8,ATGCTGTC,-0.0341
9,ATATGCTG,0.258
10,AAACTGCT,-0.23
11,AGAGTAGG,-0.149
12,AATATAAT,0.19
13,ATCCACTC,0.228
14,AACCTCGT,-0.163
15,AACGTTAG,-0.0826
16,AGGAATCA,0.32
17,AACCGTTC,-0.145
18,ATACCCAC,0.148
19,ACCTGAGA,0.00332
20,AGTACTGG,-0.0797
21,AGTAGAAA,0.141
22,ACACAAGA,0.0536
23,ACAAACCG,-0.0186
24,AGACCCAA,-0.167
25,CAAATTTA,0.0333

row,Sequence,binding signal [E-score]
1,ATGGGTTG,-0.188
2,AGTATGTC,-0.183
3,ACCAGTAT,0.102
4,ACGTTTCC,0.0502
5,ACGTGACC,-0.199
6,AAGTCAAC,-0.159
7,ATCTCCAG,0.293
8,AGAGCGTC,-0.225
9,AGGTAAGC,0.0148
10,ACTTTCTA,0.0537
11,AAACCAAT,0.014
12,AGGGCTCC,-0.296
13,AACTCTCT,-0.165
14,ATTTTTTA,0.264
15,AGTTTGGC,-0.224
16,AGATCGAT,0.234
17,AATGGAGG,-0.123
18,CAAGTACG,-0.00956
19,AATGCTCT,-0.224
